First the molecules themselves.
T1: UNK ZnF1-3 (human, UniProt Q9C0B0 31-174)
T1 sequence: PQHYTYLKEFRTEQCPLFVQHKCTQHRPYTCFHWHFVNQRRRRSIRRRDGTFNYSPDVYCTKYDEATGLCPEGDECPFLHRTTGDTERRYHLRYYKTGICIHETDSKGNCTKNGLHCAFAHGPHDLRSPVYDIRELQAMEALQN

B1: chr9:123603995:123603996:-_ENSMUSG00000025245_ENSMUST00000165754|mus_mus|motif|central (ssRNA)
RNA: GGGAGUUCUACAGUCCGACGAUCACAGAAUAAAGCAAUUACAAAUUUAGGAAAAUGUAAUAAUUAUCUAAAGCAAAAACGGUUGAGCCUAGAAUAACUCUAAAAUGUUAUUUUGAGGUCCAAAACUAUGUGUUAAGAACUUAGCAACAGAGGAUUGAGCAUCA
B2: chr1:65854986:65854987:+_ENSG00000116675_ENST00000371069|hu_hu|motif|central (ssRNA)
RNA: GGGAGUUCUACAGUCCGACGAUCGAGGAUGCUGGGAUUGACAUCUUUUGUGCAGUAAUGUUCCCAUGGUGGAGUUAAGUCGGUUACUUUGUCAUGGGGCUGUAGUUCUACAUCCAGUGUCACCUGAAAUAGCUGAGGAUAUUUCAACAGAGGAUUGAGCAUCA
B3: 40564312_40564750_764_CDS_ENSMUSG00000025757_ENSMUST00000077083|mouse|control|control (ssRNA)
RNA: GGGAGUUCUACAGUCCGACGAUCAUCUAAUGAGGGAAGAUCCUGCUUAUAAAUUCCAUAUGCCAGUGCAACUGCAGUGGUUUCAUUCAUCAGCCUCAGACAGUUUAGGCCUGCAACCUGGGCUGCGGCCAUCACGGAUCUUCUCAACAGAGGAUUGAGCAUCA
B4: 105762366_105762853_224_5pUTR_ENSMUSG00000000563_ENSMUST00000118209|mouse|control|control (ssRNA)
RNA: GGGAGUUCUACAGUCCGACGAUCAUUCUCGCGAGAAGUAGAGCGAAUUCCCUCGGAGAGGGGCGGUUGCGCAGAGGUACACCACGUGUGCGGUCCCUCCGGCGCCGAGUCAGGGUCUCUCGUCGAGUCUGGGUCUUAUAACUUCAACAGAGGAUUGAGCAUCA
B5: chrX:147030410:147030411:+_ENSG00000102081_ENST00000218200|hu_hu|motif|central (ssRNA)
RNA: GGGAGUUCUACAGUCCGACGAUCUUUCAUGCCCUGUGCCAUCUUGCCUACUAUUUGUCUUUGGCCUAACAAAGUUUUCGGAUAUGGAAUAAGAAUUACGGAAAUGGUAUAGGAAAUAUAACUUCAGAAUUAUGCAGUUUAGGGCAACAGAGGAUUGAGCAUCA
B6: chr14:66974463:66974464:+_ENSMUSG00000022044_ENSMUST00000074523|mus_hu|mus_mus_mus_hu_False|8_38 (ssRNA)
RNA: GGGAGUUCUACAGUCCGACGAUCUUGUAGGACGACUUAUUCAGGGGAUCGGCCAGGAAGCAGGAGCAGAACAAGGACACCAGCGGGAGCUCCUUCAUCUUCUCCUUGUAGGCAGCAAGGGUCAUGUUGGCUGGAAUUGGUGGCCAACAGAGGAUUGAGCAUCA
B7: 46244619_46244739_2945_3pUTR_ENSG00000189079_ENST00000334344|human|control|control (ssRNA)
RNA: GGGAGUUCUACAGUCCGACGAUCGGUGAAUGGCUGGUGCAUAAGUUUGACCUUGUUGAGCUGGCUGGCUUACAAUCACUACGCUUUGUUGGGUUGGCUGCUGUGGUUGUUGAAUAGGCUGCUGUACCACUGUAGAUGAAACUUCAACAGAGGAUUGAGCAUCA
B8: chr10:36854569:36854570:-_ENSMUSG00000069662_ENSMUST00000092584|mus_hu|FALSE|FALSE (ssRNA)
RNA: GGGAGUUCUACAGUCCGACGAUCAGAACCACAAUAAAAUUUACUCCUGAUGGCAUGCAAGAUCUUCCUAAAAAUUAACCUAAGACCUAGAAGUCUCAGUAUUAUUAGAACAUAAAAAAACACAACAAAUUUGUACAUUUUAUUCAACAGAGGAUUGAGCAUCA
B9: 72619163_72628128_782_3pUTR_ENSG00000166224_ENST00000373202|human|control|control (ssRNA)
RNA: GGGAGUUCUACAGUCCGACGAUCUAUGCUUUCUGUUCCCCCAGAAGUCACACAUCCACACGAAUCUGGUCCCCCAUUGAACAGGGAACAAGCUAUCCUCACGAUUUCUGCCUCUAUCUUGCGUAGUCCUGGGAAGAUAUCUGGCAACAGAGGAUUGAGCAUCA
B10: chr1:244855233:244855234:+_ENSG00000121644_ENST00000302550|hu_mus|hu_hu_hu_mus_True|28_48 (ssRNA)
RNA: GGGAGUUCUACAGUCCGACGAUCCAUCAGAUGGUAGGCGUUGCCCUUAUACUCUUUCCCCAGUUCUUCUACAAUUUUCUCUAUAUCAUCUUCUAGGAAGUCCGUACUCCCUAAAACAACAGCUUCUUUAAAUUUAAAUGUUUCCAACAGAGGAUUGAGCAUCA
B11: chr11:77378495:77378496:-_ENSG00000048649_ENST00000308488|hu_hu|motif|central (ssRNA)
RNA: GGGAGUUCUACAGUCCGACGAUCUGAAUACUCGUCUGUGCUUCGGCCCCGCUUUCGAACUGACCGCUUUGAUUCUUUAGCGGGCUCAUCAUCUUCAGAGUUCUUGGACAAAUAGCUCUCUUCACUCUCUGAGCUGGAAAGUCUCAACAGAGGAUUGAGCAUCA
B12: chr12:103220134:103220135:+_ENSMUSG00000041781_ENSMUST00000047357|mus_hu|FALSE|FALSE (ssRNA)
RNA: GGGAGUUCUACAGUCCGACGAUCGAAAGGGUAGUUAAUUUGAUAAUAGACGUCAUUUUUUUUGGUCCAGAAACAGCAAGCUAGAAGAGUUGAUAUCUUAGUCGUAUAUAUGAUGAAACACCAGGAAUUCUGAAGAGUUCUUUACAACAGAGGAUUGAGCAUCA
B13: chr10:57939204:57939205:+_ENSMUSG00000003226_ENSMUST00000003310|mus_hu|motif|central (ssRNA)
RNA: GGGAGUUCUACAGUCCGACGAUCAGAUGGCCUUAAUCCUUCACCCGGCAUGGGCUGAACAAAAUUAGUUUUCCCAAAUUCGGUAGUCUUAGAUUCUGCAGAUCUUGAAGCAUGAGCUGCAAUCGGAGGUUUUGUGAAAUAUCCCAACAGAGGAUUGAGCAUCA
B14: chr11:87793471:87793472:-_ENSMUSG00000020483_ENSMUST00000020775|mus_mus|mus_mus_mus_hu_False|48_78 (ssRNA)
RNA: GGGAGUUCUACAGUCCGACGAUCUGGACUUGAAAAUAAAAGAAUAAGCUGGAUCCCCCCACCCCUUACAUUGUCAACCCUACACGAGUUCUGAAUGGGCGACUCAUGAAAAUCAGCAGCUCAAACGGCAAUGACCACCCCACCCAACAGAGGAUUGAGCAUCA
B15: chr6:87000925:87000926:+_ENSMUSG00000029992_ENSMUST00000113658|mus_hu|FALSE|FALSE (ssRNA)
RNA: GGGAGUUCUACAGUCCGACGAUCUUUGAUUAGGGUCUCCAGGAUUUCUCGUCUCGUUCGAGGAACAUGGUAGUUUAAGUAAGCAAAUAUACCACACAUGAUGCCGGAGACACGGCCCGCGAGGCCAGGGGCGAGUGGCUGGCGCAACAGAGGAUUGAGCAUCA
B16: chr12:53620312:53620313:+_ENSMUSG00000035133_ENSMUST00000110725|mus_hu|motif|central (ssRNA)
RNA: GGGAGUUCUACAGUCCGACGAUCAGGUUUAAUAGGUGGAGGCACUUUAUGGUUGCGUUCAUGGUCAUGACAGUUUGGGGUACGGUGAAUAGGAUACUCAUUUCCUUCCAAAUCUAAUCUAUAUCUGGAACGGUCACUAGGUGUCAACAGAGGAUUGAGCAUCA
B17: chr17:65944371:65944372:-_ENSMUSG00000024091_ENSMUST00000024897|mus_hu|motif|central (ssRNA)
RNA: GGGAGUUCUACAGUCCGACGAUCGGGCCUCACACAGUACCGGCGAGGUGCUGUAGUCUUCACUUUGAAACACACUUUUCGGUCCGAUGGAUUUCGCAAUUUAAGAUUUGUAGUGACUACAUCUGUGAAGGGGCCUUUGAAUUUCAACAGAGGAUUGAGCAUCA
B18: chr10:62048396:62048397:-_ENSMUSG00000020075_ENSMUST00000045866|mus_hu|motif|central (ssRNA)
RNA: GGGAGUUCUACAGUCCGACGAUCAGCUUCCACAGCUCCCUUCUCCUCUAUCAGCUUCUCAGCUGAUUGUUUGAAGUGACGGAUGGCAGUGGGAGGCACGGAAUCCAAAAGCCUGAUGGCAUCUUUGCUGGAAGCUUUUAUUAUCAACAGAGGAUUGAGCAUCA
B19: chr11:87793471:87793472:-_ENSMUSG00000020483_ENSMUST00000020775|mus_mus|mus_mus_mus_hu_False|88_108 (ssRNA)
RNA: GGGAGUUCUACAGUCCGACGAUCUGGGGGCUGGGGAAAAAGAAUAAGCUAGAUUUCCCACCCCCCCACAUUGUCAACCCUACACGAGAGUUUUGAAGGCGACUCAUGAAAAUCAGCAGCUCAAACGGCAAUGACCACCCCACCCAACAGAGGAUUGAGCAUCA
B20: chr2:46850943:46850944:+_ENSG00000119878_ENST00000238892|hu_mus|FALSE|FALSE (ssRNA)
RNA: GGGAGUUCUACAGUCCGACGAUCGUAGGCGCAGCCUUGACAGUAAUGAGAACCUGGCUGGUGUACAGAACUUUUACAAAUUCUGCAAGUGGAGAACUUAUUUUUUCCAUAUGGAUCAAACCUUGCUUUUUUCGAAGUCAAAGCCAACAGAGGAUUGAGCAUCA
B21: 93373553_93456162_161_5pUTR_ENSMUSG00000056608_ENSMUST00000048665|mouse|control|control (ssRNA)
RNA: GGGAGUUCUACAGUCCGACGAUCUGAAGCAUCAGAAUCCUGAGAGGAAGAGGUAGGAAAGGAGACAGACGCUGUCUCAGACUCUGGAUCCCACGGAUUCUGCAAUCGUCAGGAGUGCCACAGAGCAGGCUGUGUGUGUCUGUGCAACAGAGGAUUGAGCAUCA
B22: chr14:89338683:89338684:+_ENSG00000165533_ENST00000346301|hu_hu|FALSE|FALSE (ssRNA)
RNA: GGGAGUUCUACAGUCCGACGAUCGUUGUUGUUGUUGACCAGAGCCAGCCUGAAGCACUGAUGGGCCAAAUUUGUAUCUCCUAUUCCCACAGCUACAUGUCCCAAGUUGUACCAGACAUCAGCUGCCUCUUCUUCAUUUUCAGCCAACAGAGGAUUGAGCAUCA

The list shows a part of the results.

The assay addresses T1, UNK ZnF1-3. Nature of the assay: nsRBNS (natural sequence RNA bind-n-seq); RBNS binding buffer (assumed for nsRBNS): 25 mM Tris pH 7.5, 150 mM KCl, 3 mM MgCl2, 0.01% Triton X-100, 500 ug/ml BSA, 20 U/ml SUPERase-In, 4 C; UNK is unkempt and MSI1 is Musashi-1; names of the RNAs are library labels; protein concentration not given here; high values mean tight binding.
Regarding B1, the binding signal amounted to 0.627 enrichment R.

B2 displayed a binding signal of 1.41 enrichment R.

Regarding B3, the binding signal was 0.732 enrichment R.

As for B4, the binding signal was found to be 0.752 enrichment R.

B5: the binding signal was 1.54 enrichment R.

Regarding B6, the binding signal amounted to 2.11 enrichment R.

In the case of B7, the binding signal stood at 0.678 enrichment R.

The molecule B8 yielded a binding signal of 1.42 enrichment R.

The molecule B9 displayed a binding signal of 0.897 enrichment R.

Consider B10, for which the binding signal worked out at 1.29 enrichment R.

Molecule B11 displayed a binding signal of 0.442 enrichment R.

In turn, B12 showed a binding signal of 1.84 enrichment R.

The molecule B13 gave a binding signal of 0.876 enrichment R.

B14 returned a binding signal of 1.73 enrichment R.

The molecule B15 came in with a binding signal of 0.906 enrichment R.

B16 showed a binding signal of 0.652 enrichment R.

Consider B17, for which the binding signal was found to be 0.763 enrichment R.

As for B18, the binding signal was 0.909 enrichment R.

For B19, the binding signal turned out to be 1.72 enrichment R.

B20 gave a binding signal of 0.748 enrichment R.

As to B21, the binding signal is 0.902 enrichment R.

The molecule B22 registered a binding signal of 0.659 enrichment R.

The values are drawn from PMC12136788.
